{"source": "PubChem BioAssay AID1460", "about": "(National Center for Advancing Translational Sciences (NCATS), 2008)", "note": "Hit rate of the full screen: of about 270,000 compounds, about 5,800 (2.1%) were called active. The shares of active, inactive and inconclusive entries below differ from those in the screen. The call rests on the fitted dose curve; in most records, active means well fitted inhibition curve with a large enough effect; inconclusive means small, poorly fitted or top-dose-only effect; inactive means flat fitted curve, though single readings scatter. Potencies of inconclusive entries are doubtful fits and often do not repeat. On the % scale 0 is the no-effect control and ±100 the full control effect; potency means the concentration at half of the fitted maximal effect; tags describe the fitted curve by direction and shape."}
{"target": "Microtubule-associated protein tau (Homo sapiens) (UniProt P10636)", "sequence (P10636 whole entry, looked up, the tested form may be a part)": "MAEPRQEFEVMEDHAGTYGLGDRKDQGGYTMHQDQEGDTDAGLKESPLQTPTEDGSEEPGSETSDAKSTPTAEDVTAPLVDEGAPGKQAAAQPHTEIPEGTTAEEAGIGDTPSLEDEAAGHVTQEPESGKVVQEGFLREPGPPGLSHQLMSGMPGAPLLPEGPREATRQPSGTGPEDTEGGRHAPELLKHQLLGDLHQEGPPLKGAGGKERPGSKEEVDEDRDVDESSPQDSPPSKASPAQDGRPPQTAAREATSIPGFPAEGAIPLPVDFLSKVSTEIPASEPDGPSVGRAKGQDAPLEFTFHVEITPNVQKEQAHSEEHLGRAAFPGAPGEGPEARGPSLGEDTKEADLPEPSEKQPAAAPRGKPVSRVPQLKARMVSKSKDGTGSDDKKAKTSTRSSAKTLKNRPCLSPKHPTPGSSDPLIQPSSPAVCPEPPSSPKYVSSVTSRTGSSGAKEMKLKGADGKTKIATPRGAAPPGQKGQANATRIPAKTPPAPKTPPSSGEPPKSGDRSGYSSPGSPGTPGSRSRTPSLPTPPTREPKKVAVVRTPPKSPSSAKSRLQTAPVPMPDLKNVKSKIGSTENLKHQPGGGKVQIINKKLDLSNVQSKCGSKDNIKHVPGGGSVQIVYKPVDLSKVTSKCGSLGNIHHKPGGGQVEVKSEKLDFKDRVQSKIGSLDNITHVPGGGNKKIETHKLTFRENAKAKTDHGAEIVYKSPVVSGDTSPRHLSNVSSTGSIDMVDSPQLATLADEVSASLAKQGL", "experiment": "qHTS for Inhibitors of Tau Fibril Formation, Thioflavin T Binding; further: nearly all actives have a fitted effect of over 55% in size", "details": "recombinant tau K18 P301L (four-repeat tau fragment), heparin-induced fibrillization, ThT fluorescence; series mostly up to 57.4 µM; activity, negative = inhibition: at the top concentration", "summary_of_the_method": "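K18 P301L tau (15 uM + 0.24 uM Alexa 594-tagged), heparin 20 uM, NaOAc pH 7, 6 h 37 C; ThT 30 uM, 1 h RT, ex 450/em 510 nm.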"}
{"smiles": "CCC(=NCCN1CCNCC1)C1=C(O)CC(C)(C)CC1=O", "Potency": "inconclusive: 15.8 µM [inhibitor, partial curve]"}
{"smiles": "COC(=O)[C@@H](NC(=O)N1CCc2nc(-c3ccccc3)c3c(c2C1)CO[C@@H](C)C3)C(C)C", "activity, negative = inhibition": "inactive: 5.98% [at 11.5 µM]"}
{"smiles": "CCOC(=O)C1=C(O)/C(=C/c2ccc(OCC(=O)O)c(OC)c2)SC1=Nc1ccc(OC)cc1", "Potency": "inconclusive: 14.1 µM [inhibitor, partial curve]"}
{"smiles": "CCOc1ccc(N(Cc2cc3cc(C)ccc3[nH]c2=O)C(=O)c2cccc(Cl)c2)cc1", "activity, negative = inhibition": "inactive: -1.88%"}
{"smiles": "CC(C)(C)c1ccc(OCC(O)CSc2ncn[nH]2)cc1", "note": "(stereo not given)", "activity, negative = inhibition": "inactive: -17.4%"}
{"smiles": "COc1ccc(S(=O)(=O)NCCc2cn3ccsc3n2)cc1OC", "activity, negative = inhibition": "inactive: 4.55%"}
{"smiles": "Cc1ccccc1-c1nc(S(=O)(=O)c2ccc(Br)cc2)c(NCc2cccnc2)o1", "activity, negative = inhibition": "inactive: -11.6%"}
{"smiles": "O=c1/c(=C\\c2ccc3c(c2)OCO3)sc2n1CCCN=2", "Potency": "inconclusive: 20 µM [inhibitor, partial curve, poor fit]"}
{"smiles": "CC1CCCN(c2csc3ccccc3c2=O)C1", "note": "(stereo not given)", "Potency": "inconclusive: 15.8 µM [inhibitor, partial curve]"}
{"smiles": "O=C(CSc1ccc2ccccc2c1)Nc1ncccn1", "activity, negative = inhibition": "inactive: -3.69%"}
{"smiles": "Cc1cc(C)nc(SCc2csc(-c3ccccc3)n2)n1", "Potency": "inconclusive: 17.8 µM [inhibitor, partial curve]"}
{"smiles": "CCOC(=O)c1ccc(-n2c(CCC(=O)O)ccc2-c2cccs2)cc1", "Potency": "inconclusive: 28.2 µM [inhibitor, partial curve]"}
{"smiles": "Cn1c(=O)c2c(nc(NCCc3ccccc3)n2Cc2ccc(Cl)c(Cl)c2)n(C)c1=O", "Potency": "inconclusive: 1 µM [inhibitor, full curve, poor fit]"}
{"smiles": "O=C(COC(=O)c1ccccc1Oc1ccccc1)NCc1ccco1", "Potency": "inconclusive: 39.8 µM [inhibitor, single point]"}
{"smiles": "O=C(C(=O)N1CCN(c2cccc(Cl)c2)CC1)c1c[nH]c2ccccc12", "Potency": "inconclusive: 39.8 µM [inhibitor, single point]"}
{"smiles": "Cc1nc(CCNC(=O)Cc2ccc(Cl)cc2)cs1", "activity, negative = inhibition": "inactive: -11.5%"}
{"smiles": "CCOC(=O)CSc1nc2sc3c(c2c(=O)n1Cc1ccccc1)CC(C)CC3", "note": "(stereo not given)", "activity, negative = inhibition": "inactive: -17.1%"}
{"smiles": "CCOC(=S)N/C(=N\\S(C)(=O)=O)c1ccccc1", "Potency": "inconclusive: 35.5 µM [inhibitor, single point]"}
{"smiles": "CC(NC(=O)NC1CCCCC1)C(c1cccs1)N1CCN(c2ccccc2)CC1", "note": "(stereo not given)", "Potency": "inconclusive: 5.62 µM [inhibitor, partial curve]"}
{"smiles": "COc1ccc(-c2nc(-c3ccc(NC(=O)c4ccc(Br)o4)cc3)no2)cc1OC", "Potency": "inconclusive: 39.8 µM [activator, single point]"}
